Data as given in PubChem BioAssay AID1468 (National Center for Advancing Translational Sciences (NCATS), 2008).
The whole screen tested about 280,000 compounds, of which about 1,100 (0.39%) were called active. This list was built around the results that the source calls inconclusive (neither active nor inactive); the mix of calls is not that of the screen. Calls follow the shape of the dose curve; as a rule, active = well fitted inhibition curve with a large enough effect; inconclusive = small, poorly fitted or top-dose-only effect, or effect the other way; inactive = flat fitted curve, though single readings scatter. Potencies of inconclusive entries are left out as doubtful fits.

These molecules were tested against Microtubule-associated protein tau (Homo sapiens) (UniProt P10636) (assay: qHTS for Inhibitors of Tau Fibril Formation, Fluorescence Polarization). Conditions: K18 P301L tau heparin fibrillization, Alexa594 FP, 6 h; series mostly up to 57.7 µM.
UniProt P10636, sequence (P10636 whole entry, looked up): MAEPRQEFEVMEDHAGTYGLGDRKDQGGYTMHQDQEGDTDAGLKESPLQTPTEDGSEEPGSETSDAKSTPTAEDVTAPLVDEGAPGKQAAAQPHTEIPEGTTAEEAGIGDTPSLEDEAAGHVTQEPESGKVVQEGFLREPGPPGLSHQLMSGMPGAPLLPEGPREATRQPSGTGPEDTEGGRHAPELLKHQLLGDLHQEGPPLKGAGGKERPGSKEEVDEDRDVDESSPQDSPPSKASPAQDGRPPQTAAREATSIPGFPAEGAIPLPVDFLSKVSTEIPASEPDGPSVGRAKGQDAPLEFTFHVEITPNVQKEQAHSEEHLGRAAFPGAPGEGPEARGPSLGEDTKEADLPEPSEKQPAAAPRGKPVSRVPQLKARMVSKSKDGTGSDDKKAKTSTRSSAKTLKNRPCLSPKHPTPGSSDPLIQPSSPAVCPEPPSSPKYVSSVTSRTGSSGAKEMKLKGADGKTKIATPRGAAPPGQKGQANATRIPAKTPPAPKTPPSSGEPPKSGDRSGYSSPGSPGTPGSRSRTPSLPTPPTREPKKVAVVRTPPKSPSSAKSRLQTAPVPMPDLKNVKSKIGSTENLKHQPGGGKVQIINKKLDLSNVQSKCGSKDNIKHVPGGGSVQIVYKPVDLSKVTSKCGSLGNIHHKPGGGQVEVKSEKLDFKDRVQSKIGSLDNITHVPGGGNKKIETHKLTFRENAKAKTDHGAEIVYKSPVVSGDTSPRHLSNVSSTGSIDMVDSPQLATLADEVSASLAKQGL
Method in brief: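 Heparin (20 uM) drove fibril formation of recombinant tau K18 P301L, 15 uM unlabeled with 0.24 uM Alexa 594 label, for 6 hr at 37 C in 100 mM sodium acetate pH 7. Fluorescence polarization (555/632 nm) read 1 hr after 30 uM ThT.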
% is scaled to controls: 0 for no effect and ±100 for the full control effect; potency is read from the fitted curve at half-maximal effect; tags tell the direction and shape of the fitted curve.
Also: nearly all actives have a fitted effect of over 55% in size.

| SMILES | Potency | activity, negative = inhibition |
| --- | --- | --- |
| Cc1occc(=O)c1OC(=O)Nc1ccc(Cl)c(Cl)c1 | inconclusive [inhibitor, partial curve] | – |
| CCn1c(SCC(=O)c2ccc(Cl)cc2)nnc1-c1ccoc1C | inconclusive [inhibitor, single point] | – |
| O=C(NC(=S)NNS(=O)(=O)c1ccccc1)c1cccnc1 | inconclusive [inhibitor, full curve, poor fit] | – |
| CC(C)(C)CN1C(N)=NC[C@@H]1Cc1ccc(O)cc1 | inconclusive [inhibitor, single point] | – |
| Cc1ccc2ncc(C(=O)NCc3ccccc3Cl)c(=O)n2c1 | inactive | – |
| Cc1ccc(S(=O)(=O)NCCC(=O)Nc2ccc(Cl)c(Cl)c2)cc1C | active: 14.1 µM | – |
| CC1C(=O)Nc2ccccc2N1C(=O)C1CC1 (centres undefined) | inactive | – |
| CCCS(=O)(=O)c1ncc(Cl)c(C(=O)N2CCN(c3ccc(OC)cc3)CC2)n1 | inconclusive [inhibitor, single point] | – |
| CCOC(=O)C1CCN(C(=O)Nc2ccc3nc(-c4ccco4)c(-c4ccco4)nc3c2)CC1 | inconclusive [inhibitor, partial curve] | – |
| CCOC(=O)c1[nH]c(C)c(C(=O)OCC)c1C | inactive | – |
| CCOC(=O)c1c(-c2ccccc2)oc2ccc(NS(=O)(=O)c3ccc(OC)cc3)cc12 | inconclusive [inhibitor, full curve] | – |
| COc1ccc(S(=O)(=O)Nc2cccc(-c3ccc(N4CCOCC4)nn3)c2)cc1F | inactive | – |
| COc1ccccc1NS(=O)(=O)c1cccc(NC(=O)Nc2ccccc2)c1 | inconclusive [inhibitor, partial curve] | – |
| Cn1nnnc1SCC(=O)N1CCN(c2ccc(Cl)cc2)CC1 | inactive | – |
| CCN(CC)c1ccc(N=Cc2cc(Br)ccc2O)cc1 | inconclusive [inhibitor, single point] | – |
| CCOc1cc(C(=O)Nc2ccc3oc(-c4ccc(F)cc4Cl)nc3c2)cc(OCC)c1OCC | inconclusive [inhibitor, partial curve, poor fit] | – |
| O=C1CSC(=Nc2cccc(Cl)c2Cl)N1Cc1cccnc1 | inconclusive [inhibitor, single point] | – |
| O=S(=O)(Nc1ccc(-c2csc(-c3ccccc3)n2)cc1)c1ccc(F)cc1 | active: 11.2 µM | – |
| Cc1ccc(N=Cc2cccc(O)c2O)c(C)c1 | active: 8.91 µM | – |
| CC(=O)c1ccc(N2C(=O)N(Cc3cccc(C(F)(F)F)c3)c3ccccc3S2(=O)=O)cc1 | inactive | – |
| COc1ccc(CNC(=S)Nc2ccc3nc(N4CCN(C)CC4)cc(C)c3c2)cc1 | inconclusive [activator, partial curve, poor fit] | – |
| Fc1cccc(CN2CCN(c3nc4nonc4nc3NC3CC3)CC2)c1 | inactive | – |
| COC(=O)C/C=C/[C@@H](C)[C@@H](/C=N/O[C@H](C)c1cn([C@@H]2COC[C@H]2O)nn1)NS(=O)(=O)c1ccc(C)cc1 | inactive | – |

| SMILES | Potency | activity, negative = inhibition |
| --- | --- | --- |
| Cc1noc(C)c1S(=O)(=O)Nc1ccc(C(=O)Nc2ccc(Br)cc2)cc1 | inconclusive [inhibitor, single point] | – |
| Cc1cccc(/C(N)=N/OC(=O)c2ccc(Cl)cc2Cl)c1 | inactive | – |
| CCOc1cccc(C(=O)Nc2ccc3oc(-c4cccnc4)nc3c2)c1 | inconclusive [inhibitor, partial curve] | – |
| CC(=O)NCC(=O)N[C@H](CCC(=O)O)C(=O)O | inactive | – |
| CC1CC(C)CN(S(=O)(=O)c2ccc(C(=O)Nc3sccc3C(N)=O)cc2)C1 (centres undefined) | inconclusive [activator, partial curve] | – |
| CCOC(=O)C1=C(C)C(c2ccc(OC)cc2)NC(=S)N1 (centres undefined) | inactive | – |
| CC(C)CC1C(=O)N2CCCC2C2(O)O[C@@](NC(=O)C3C=C4c5cccc6[nH]c(Br)c(c56)CC4N(C)C3)(C(C)C)C(=O)N12 (some centres undefined) | inactive | – |
| COc1ccc(/C=C(/C#N)c2nc(-c3ccc(-c4ccccc4)cc3)cs2)cc1OC | inconclusive [inhibitor, partial curve, poor fit] | – |
| CCOC(=O)c1cccc(NC(=O)Cn2c(=O)nc(-c3ccccc3F)c3cc(Cl)ccc32)c1 | inconclusive [inhibitor, single point] | – |
| Cc1[nH]n(-c2ccccc2)c(=O)c1N=Nc1ccccc1O | inconclusive [activator, full curve] | – |
| COc1cc2c3nnc(-c4ccc(F)cc4)c-3cn(Cc3ccccc3F)c2cc1OC | inconclusive [inhibitor, partial curve] | – |
| O=C(NC1CC1)c1c[nH]c2ccc(S(=O)(=O)Nc3cccc(C(F)(F)F)c3)cc2c1=O | inconclusive [inhibitor, partial curve] | – |
| Cn1c(=O)oc2cc(S(=O)(=O)NCCC(=O)Nc3ccc4c(c3)OCCO4)ccc21 | inconclusive [activator, single point] | – |
| CCN(CC)Cc1oc(-c2ccccc2)cc1C(=O)O | inactive | – |
| CCOC(=O)c1ccc(NC(=O)CN2c3ccccc3S(=O)(=O)c3ccccc32)cc1 | inconclusive [inhibitor, partial curve] | – |
| O=C(COC(=O)C1CCC(=O)N1)Nc1ccc(Oc2ccccc2)cc1 (centres undefined) | inactive | – |
| CC(=O)c1ccc2c(c1)Nc1ccccc1S2 | inconclusive [activator, full curve] | – |
| COc1cccc(N2CCN(C(=O)c3cccnc3)CC2)c1 | inactive | – |
| Cc1ccc(N2C(=O)[C@@H]3[C@H](C2=O)[C@H]2C=CC=NN2[C@@H]3C(=O)Nc2ccccc2)cc1 | inactive | – |
| O=C(O)CC(C(=O)O)N1C(=O)/C(=C/C=C/c2ccco2)SC1=S (centres undefined) | inconclusive [inhibitor, partial curve, poor fit] | – |
| Clc1cccc(N/N=C/c2ccc(N3CCOCC3)s2)c1 | inconclusive [inhibitor, single point] | – |
| O=C(/C=C/c1ccccc1)n1cnnc1SC/C=C/c1ccccc1 | inconclusive [inhibitor, partial curve] | – |
| O=C(Cn1cc[n+](Cc2ccccc2)c1)c1ccc([N+](=O)[O-])cc1 | inactive | – |

| SMILES | Potency | activity, negative = inhibition |
| --- | --- | --- |
| Cc1ccc(S(=O)(=O)N/N=C\c2ccccc2OCc2ccccc2)cc1 | inconclusive [inhibitor, partial curve] | – |
| COc1ccc(/C=C\c2onc(C)c2S(=O)(=O)N2CCC(C(=O)Nc3cccc(Cl)c3)CC2)cc1 | active: 14.1 µM | – |
| O=C(O)CCCNc1cc(N2CCC3(CC2)OCCO3)c2noc3c2c1C(=O)c1ccccc1-3 | inconclusive [inhibitor, partial curve] | – |
| Cc1ccc(C)c(S(=O)(=O)N/N=C/c2ccc(N(C)C)cc2)c1 | inactive | – |
| COc1ccc(-c2cc(C(F)(F)F)nc(SCC(=O)Nc3ccc4c(c3)OCO4)n2)cc1 | inactive | – |
| O=C(Nc1nnc(-c2ccccc2SCc2ccccc2)s1)Nc1ccccc1F | inconclusive [inhibitor, full curve, poor fit] | – |
| CC1CCCC(C)N1CCCNC(=O)Cn1cc2c(n1)CCCC2 (centres undefined) | inconclusive [inhibitor, single point] | – |
| Cc1cn(CCC(=O)Nc2ccc(N3CCOCC3)cc2)c2ccccc12 | inconclusive [activator, partial curve] | – |
| COc1cccc(N2C(=O)N(CC(=O)NCc3cccc(OC)c3OC)c3ccccc3S2(=O)=O)c1 | inactive | – |
| Cc1noc(-c2ccc(Cl)cc2)c1C(=O)O/N=C(\N)c1ccc(C(C)(C)C)cc1 | inconclusive [inhibitor, partial curve, poor fit] | – |
| Cc1cn2c(=O)cc(COc3ccccc3NC(=O)c3ccccc3C)nc2s1 | inconclusive [inhibitor, single point] | – |
| Cc1ccc(-c2csc(/C(C#N)=C/c3ccccc3Cl)n2)cc1 | inconclusive [inhibitor, single point] | – |
| CCOc1ccc(/C(O)=C2\C(=O)C(=O)N(c3ccc(OC)cc3)C2c2ccccc2[N+](=O)[O-])cc1 (centres undefined) | inconclusive [inhibitor, partial curve] | – |
| CCCCc1nc2c(c3c1C[C@H](C)OC3)CN(S(=O)(=O)CCCC)CC2 | – | inactive: -3.98% [at 11.6 µM] |
| CCCCCC1CC(CC(=O)Nc2ccc([N+](=O)[O-])cc2)C(=O)O1 (centres undefined) | inconclusive [inhibitor, single point] | – |
| Cc1ccc(NC(=O)COC(=O)c2ccc3c(c2)NC(=O)C2CCCN32)cc1C (centres undefined) | inconclusive [inhibitor, partial curve] | – |
| CCOc1nc(-c2ccc(Cl)cc2Cl)ccc1C#N | inconclusive [inhibitor, partial curve] | – |
| CCOc1ccc(C(C)=O)cc1COC(=O)C1=COCCO1 | inactive | – |
| COCCOC(=O)c1c(C)nc(SCC(=O)Nc2cccc3ccccc23)c(C#N)c1-c1ccco1 | inactive | – |
| CCOc1ccc(CN(Cc2ccco2)C(c2cccs2)c2nnnn2C(C)(C)C)cc1 (centres undefined) | inconclusive [inhibitor, single point] | – |
| COc1ccc2[nH]c(C(O)(Cc3cccnc3)Cc3cccnc3)cc2c1 | inactive | – |
| Cc1cc(=O)[nH]c(SCC(=O)Nc2ccccc2C)n1 | inconclusive [inhibitor, full curve, poor fit] | – |
| COc1ccc(CC(=O)OCC(=O)Nc2ccc(N3CCOCC3)cc2)cc1 | inactive | – |
